# Measured values: the supplement of paper PMC10037445
# “And” between values parts separate entries of the source, which are not always exact repeats. Equal entries are not always repeated. In all, about 2,900 compounds were measured (“NF-kB SEAP reporter activity, fold change vs agonist alone”: median about 0.99, highest 2% from about 2.6 on). The list shows a part of the results.
# Key:
# RAW-Dual [1] = test: NF-kB SEAP reporter activity, fold change vs agonist alone; higher = enhanced NF-kB activity
# Procedure, shortened: (§1)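 After 50 nL of library stock was delivered by pin tool to RAW-Dual macrophages (50,000 cells/well, DMEM, 384-well plates), a PRR agonist was added 1 h later and the plates were kept at 37 °C, 5% CO2. Twenty hours later, IRF was read from supernatant by QuantiLuc luminescence and NF-κB by QuantiBlue absorbance at 620 nm. Reporter activity is stated as fold change over agonist-alone wells. Wells with IncuCyte confluency under 70% of agonist controls in both mask sets were counted as cytotoxic.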
# RAW-Dual [2] = test: NF-kB SEAP reporter activity, fold change vs agonist alone; cytotoxicity flag (confluency mask): not cytotoxic; higher = enhanced NF-kB activity
# Procedure, shortened: as §1
# RAW-Dual [3] = test: NF-kB SEAP reporter activity, fold change vs agonist alone; cytotoxicity flag (confluency mask): cytotoxic (confluency <70% of control); higher = enhanced NF-kB activity
# Procedure, shortened: as §1
# [4] = library stock concentration (final ~1000-fold dilution): 10 mM, cytotoxicity flag (confluency mask): not cytotoxic, agonist: Imiquimod (TLR7) […]
# [5] = library stock concentration (final ~1000-fold dilution): 10 mM, cytotoxicity flag (confluency mask): not cytotoxic, agonist: MPLA (TLR4) […]
# [6] = agonist: ODN 1826 (TLR9) 0.5 ug/mL
# [7] = agonist: Pam2CSK4 (TLR2/6) 0.1 ug/mL
# [8] = agonist: Pam3CSK4 (TLR2/1) 0.1 ug/mL
# [9] = library stock concentration (final ~1000-fold dilution): 10 mM, cytotoxicity flag (confluency mask): cytotoxic (confluency <70% of control), agonist: Imiquimod (TLR7) […]
# [10] = library stock concentration (final ~1000-fold dilution): 10 mM, cytotoxicity flag (confluency mask): cytotoxic (confluency <70% of control), agonist: MPLA (TLR4) […]
smiles,measurement,setting,value
C=CC(=O)N1CCCC(n2c(=O)n(-c3ccc(Oc4ccccc4)cc3)c3c(N)ncnc32)C1 (stereo not drawn),NF-kB SEAP reporter activity,RAW-Dual [1]; [4],0.764
same,NF-kB SEAP reporter activity,RAW-Dual [1]; [5],0.719
CC(=O)OC(C)OC(=O)C(C)c1ccc(-c2ccccc2)c(F)c1 (stereo not drawn) (library stock concentration (final ~1000-fold dilution): 10 mM),NF-kB SEAP reporter activity,RAW-Dual [2]; agonist: LPS (TLR4) 0.1 ug/mL,0.982
same,NF-kB SEAP reporter activity,RAW-Dual [2]; [6],0.926
same,NF-kB SEAP reporter activity,RAW-Dual [2]; [7],1
same,NF-kB SEAP reporter activity,RAW-Dual [2]; [8],1.16
CC(=O)OC(C)OC(=O)C(C)c1ccc(-c2ccccc2)c(F)c1 (stereo not drawn),NF-kB SEAP reporter activity,RAW-Dual [1]; [4],0.888
same,NF-kB SEAP reporter activity,RAW-Dual [1]; [5],1.04
Cc1ccc(NC(=O)c2cccc(C(C)(C)C#N)c2)cc1Nc1ccc2ncn(C)c(=O)c2c1,NF-kB SEAP reporter activity,RAW-Dual [1]; [4],1.37
same,NF-kB SEAP reporter activity,RAW-Dual [1]; [5],1.54
Cc1ccc(NC(=O)c2cccc(C(C)(C)C#N)c2)cc1Nc1ccc2ncn(C)c(=O)c2c1 (library stock concentration (final ~1000-fold dilution): 10 mM),NF-kB SEAP reporter activity,RAW-Dual [2]; agonist: LPS (TLR4) 0.1 ug/mL,2.5
same,NF-kB SEAP reporter activity,RAW-Dual [2]; [6],1.09
same,NF-kB SEAP reporter activity,RAW-Dual [2]; [7],0.678
same,NF-kB SEAP reporter activity,RAW-Dual [2]; [8],0.728
Cl.Cn1cc(-c2nc(NC3CCCCC3N)c(F)c3c2C(=O)NC3)cn1 (stereo not drawn) (library stock concentration (final ~1000-fold dilution): 10 mM water),NF-kB SEAP reporter activity,RAW-Dual [2]; agonist: LPS (TLR4) 0.1 ug/mL,0.956
same,NF-kB SEAP reporter activity,RAW-Dual [2]; [6],0.464
same,NF-kB SEAP reporter activity,RAW-Dual [2]; [7],0.292
same,NF-kB SEAP reporter activity,RAW-Dual [2]; [8],0.427
Cl.Cn1cc(-c2nc(NC3CCCCC3N)c(F)c3c2C(=O)NC3)cn1 (stereo not drawn),NF-kB SEAP reporter activity,"RAW-Dual [1]; library stock concentration (final ~1000-fold dilution): 10 mM water, cytotoxicity flag (confluency mask): not cytotoxic, agonist: Imiquimod (TLR7) […]",0.375
same,NF-kB SEAP reporter activity,"RAW-Dual [1]; library stock concentration (final ~1000-fold dilution): 10 mM water, cytotoxicity flag (confluency mask): not cytotoxic, agonist: MPLA (TLR4) […]",0.764
OCCN(CCO)c1nc(N2CCCCC2)c2nc(N(CCO)CCO)nc(N3CCCCC3)c2n1 (library stock concentration (final ~1000-fold dilution): 10 mM),NF-kB SEAP reporter activity,RAW-Dual [2]; agonist: LPS (TLR4) 0.1 ug/mL,1.75
same,NF-kB SEAP reporter activity,RAW-Dual [2]; [6],1.53
same,NF-kB SEAP reporter activity,RAW-Dual [2]; [7],1.11
same,NF-kB SEAP reporter activity,RAW-Dual [2]; [8],1.29
OCCN(CCO)c1nc(N2CCCCC2)c2nc(N(CCO)CCO)nc(N3CCCCC3)c2n1,NF-kB SEAP reporter activity,RAW-Dual [1]; [4],1.64
same,NF-kB SEAP reporter activity,RAW-Dual [1]; [5],1.09
COCCCC/C(=N\OCCN)c1ccc(C(F)(F)F)cc1.O=C(O)/C=C\C(=O)O,NF-kB SEAP reporter activity,RAW-Dual [1]; [4],1.21
same,NF-kB SEAP reporter activity,RAW-Dual [1]; [5],1.16
COCCCC/C(=N\OCCN)c1ccc(C(F)(F)F)cc1.O=C(O)/C=C\C(=O)O (library stock concentration (final ~1000-fold dilution): 10 mM),NF-kB SEAP reporter activity,RAW-Dual [2]; agonist: LPS (TLR4) 0.1 ug/mL,1.04
same,NF-kB SEAP reporter activity,RAW-Dual [2]; [6],0.819
same,NF-kB SEAP reporter activity,RAW-Dual [2]; [7],0.803
same,NF-kB SEAP reporter activity,RAW-Dual [2]; [8],0.942
Cc1ccc(F)c(NC(=O)Nc2ccc(-c3cccc4[nH]nc(N)c34)cc2)c1,NF-kB SEAP reporter activity,RAW-Dual [1]; [9],1.91
same,NF-kB SEAP reporter activity,RAW-Dual [1]; [10],1.72
Cc1ccc(F)c(NC(=O)Nc2ccc(-c3cccc4[nH]nc(N)c34)cc2)c1 (library stock concentration (final ~1000-fold dilution): 10 mM),NF-kB SEAP reporter activity,RAW-Dual [3]; agonist: LPS (TLR4) 0.1 ug/mL,1.06
same,NF-kB SEAP reporter activity,RAW-Dual [3]; [6],1.29
same,NF-kB SEAP reporter activity,RAW-Dual [3]; [7],0.316
same,NF-kB SEAP reporter activity,RAW-Dual [3]; [8],0.74
Cc1csc(-c2nc[nH]c2-c2ccc3ncsc3c2)n1.Cl (library stock concentration (final ~1000-fold dilution): 10 mM),NF-kB SEAP reporter activity,RAW-Dual [2]; agonist: LPS (TLR4) 0.1 ug/mL,2.26
same,NF-kB SEAP reporter activity,RAW-Dual [2]; [6],1.18
same,NF-kB SEAP reporter activity,RAW-Dual [2]; [7],1.24
same,NF-kB SEAP reporter activity,RAW-Dual [2]; [8],1.47
Cc1csc(-c2nc[nH]c2-c2ccc3ncsc3c2)n1.Cl,NF-kB SEAP reporter activity,RAW-Dual [1]; [4],0.927
same,NF-kB SEAP reporter activity,RAW-Dual [1]; [5],1.34
CC(=O)c1cc2c(o1)C(=O)c1ccccc1C2=O (library stock concentration (final ~1000-fold dilution): 10 mM),NF-kB SEAP reporter activity,RAW-Dual [3]; agonist: LPS (TLR4) 0.1 ug/mL,0.283
same,NF-kB SEAP reporter activity,RAW-Dual [3]; [6],1.77
same,NF-kB SEAP reporter activity,RAW-Dual [3]; [7],0.0769
same,NF-kB SEAP reporter activity,RAW-Dual [3]; [8],0.132
CC(=O)c1cc2c(o1)C(=O)c1ccccc1C2=O,NF-kB SEAP reporter activity,RAW-Dual [1]; [9],1.37
same,NF-kB SEAP reporter activity,RAW-Dual [1]; [10],0.668
CCN(CC)CC(=O)Nc1c(C)cccc1C (library stock concentration (final ~1000-fold dilution): 10 mM),NF-kB SEAP reporter activity,RAW-Dual [2]; agonist: LPS (TLR4) 0.1 ug/mL,1.1 and 0.995
same,NF-kB SEAP reporter activity,RAW-Dual [2]; [6],1.13 and 1.09
same,NF-kB SEAP reporter activity,RAW-Dual [2]; [7],1.12 and 1.14
same,NF-kB SEAP reporter activity,RAW-Dual [2]; [8],1.02 and 1.09
CN(c1ccccc1CNc1nc(Nc2ccc3c(c2)CC(=O)N3)ncc1C(F)(F)F)S(C)(=O)=O (library stock concentration (final ~1000-fold dilution): 10 mM),NF-kB SEAP reporter activity,RAW-Dual [3]; agonist: LPS (TLR4) 0.1 ug/mL,0.321
same,NF-kB SEAP reporter activity,RAW-Dual [3]; [6],0.221
same,NF-kB SEAP reporter activity,RAW-Dual [3]; [7],0.0676
same,NF-kB SEAP reporter activity,RAW-Dual [3]; [8],0.137
CN(c1ccccc1CNc1nc(Nc2ccc3c(c2)CC(=O)N3)ncc1C(F)(F)F)S(C)(=O)=O,NF-kB SEAP reporter activity,RAW-Dual [1]; [9],0.15
same,NF-kB SEAP reporter activity,RAW-Dual [1]; [10],0.261
S=C(S)N1CCCC1,NF-kB SEAP reporter activity,RAW-Dual [1]; [9],1.33
same,NF-kB SEAP reporter activity,RAW-Dual [1]; [10],2.13
S=C(S)N1CCCC1 (library stock concentration (final ~1000-fold dilution): 10 mM),NF-kB SEAP reporter activity,RAW-Dual [3]; agonist: LPS (TLR4) 0.1 ug/mL,1.39
same,NF-kB SEAP reporter activity,RAW-Dual [3]; [6],1.63
same,NF-kB SEAP reporter activity,RAW-Dual [3]; [7],1.15
same,NF-kB SEAP reporter activity,RAW-Dual [3]; [8],1.5
COc1cc(N2CCN(C)CC2)ccc1Nc1ncc2c(n1)N(C)c1ccccc1C(=O)N2 (library stock concentration (final ~1000-fold dilution): 10 mM),NF-kB SEAP reporter activity,RAW-Dual [2]; agonist: LPS (TLR4) 0.1 ug/mL,0.966
same,NF-kB SEAP reporter activity,RAW-Dual [2]; [6],0.514
same,NF-kB SEAP reporter activity,RAW-Dual [2]; [7],1.08
same,NF-kB SEAP reporter activity,RAW-Dual [2]; [8],1.61
COc1cc(N2CCN(C)CC2)ccc1Nc1ncc2c(n1)N(C)c1ccccc1C(=O)N2,NF-kB SEAP reporter activity,RAW-Dual [1]; [4],0.928
same,NF-kB SEAP reporter activity,RAW-Dual [1]; [5],1.03
C[N+]1(C)CCC[C@H]1C(=O)O,NF-kB SEAP reporter activity,RAW-Dual [1]; [4],0.952
same,NF-kB SEAP reporter activity,RAW-Dual [1]; [5],0.985
C[N+]1(C)CCC[C@H]1C(=O)O (library stock concentration (final ~1000-fold dilution): 10 mM),NF-kB SEAP reporter activity,RAW-Dual [2]; agonist: LPS (TLR4) 0.1 ug/mL,1.08
same,NF-kB SEAP reporter activity,RAW-Dual [2]; [6],1.08
same,NF-kB SEAP reporter activity,RAW-Dual [2]; [7],1.16
same,NF-kB SEAP reporter activity,RAW-Dual [2]; [8],1.08
